Laboratory results from PMC4336329 (PLoS ONE, 2015).
The whole screen tested about 310,000 compounds, of which about 14,000 (4.5%) showed an effect of 50% or more. Effects have a minus sign here. The list shows a part of the results.

What follows are compounds tested against human ether-à-go-go-related gene (hERG) potassium channel (human, UniProt Q12809) (assay: primary screen, population patch clamp on CHO cells stably expressing hERG).
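Also: peak tail current of the secondary pulse compared with the same well before compound.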

Chain of human ether-à-go-go-related gene (hERG) potassium channel (Q12809 whole entry, looked up): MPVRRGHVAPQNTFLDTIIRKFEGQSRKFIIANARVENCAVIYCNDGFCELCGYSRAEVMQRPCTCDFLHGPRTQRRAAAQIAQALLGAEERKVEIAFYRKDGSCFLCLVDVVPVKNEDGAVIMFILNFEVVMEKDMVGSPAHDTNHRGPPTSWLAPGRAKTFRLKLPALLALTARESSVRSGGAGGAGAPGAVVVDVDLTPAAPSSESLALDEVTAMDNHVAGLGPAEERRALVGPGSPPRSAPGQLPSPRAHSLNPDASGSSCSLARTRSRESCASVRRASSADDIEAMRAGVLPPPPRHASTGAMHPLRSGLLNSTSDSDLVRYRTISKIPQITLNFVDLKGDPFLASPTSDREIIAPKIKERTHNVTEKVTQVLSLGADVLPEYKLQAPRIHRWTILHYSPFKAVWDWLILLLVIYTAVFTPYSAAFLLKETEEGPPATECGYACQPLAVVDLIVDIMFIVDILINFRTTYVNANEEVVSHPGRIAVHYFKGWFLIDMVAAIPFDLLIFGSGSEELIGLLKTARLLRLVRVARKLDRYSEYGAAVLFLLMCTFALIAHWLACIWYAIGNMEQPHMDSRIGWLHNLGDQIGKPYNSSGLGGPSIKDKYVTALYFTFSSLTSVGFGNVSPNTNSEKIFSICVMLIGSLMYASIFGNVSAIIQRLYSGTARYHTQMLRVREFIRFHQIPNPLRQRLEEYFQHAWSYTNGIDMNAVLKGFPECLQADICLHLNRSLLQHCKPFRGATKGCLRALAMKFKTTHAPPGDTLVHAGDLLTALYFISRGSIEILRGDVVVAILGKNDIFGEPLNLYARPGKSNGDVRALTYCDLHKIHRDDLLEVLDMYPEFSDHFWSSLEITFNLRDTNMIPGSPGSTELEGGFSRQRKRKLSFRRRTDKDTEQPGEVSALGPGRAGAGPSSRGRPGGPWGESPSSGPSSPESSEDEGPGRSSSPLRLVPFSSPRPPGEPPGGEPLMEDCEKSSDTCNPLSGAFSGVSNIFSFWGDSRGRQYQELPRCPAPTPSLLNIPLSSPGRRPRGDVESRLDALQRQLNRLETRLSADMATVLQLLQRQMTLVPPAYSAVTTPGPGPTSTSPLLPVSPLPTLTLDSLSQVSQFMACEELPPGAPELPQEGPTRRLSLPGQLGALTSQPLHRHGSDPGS

Row | Compound | hERG current change (%, negative = inhibition) at 10uM [%]
1 | CC1C2C(c3ccccc3)N(C)C(=O)N(C)C2N(C)C(=O)N1C (stereo not shown) | 12.9
2 | CCN(CC)S(=O)(=O)c1ccc(C(=O)NNC2=NS(=O)(=O)c3ccccc32)cc1 | 18.3
3 | C=CCn1c(SCC(=O)N2CCCCCC2)nc2ccccc2c1=O | -59.2
4 | CC(C)(C)NC(=O)CSc1nnc(NC(=O)CCc2ccccc2)s1 | 5.82
5 | Cc1ccc(Nc2nc(CSc3nnc(-c4ccncc4)n3C)cs2)cc1 | -35.1
6 | O=C(CC(=O)NC1CCCCC1)N/N=C/c1cccc2ccccc12 | 17.5
7 | c1ccc2c(c1)nc(N1CCOCC1)c1nnnn12 | -4.42
8 | O=S(=O)(NCCc1ccccc1)c1cccs1 | 7.7
9 | COc1ccc(NC(=O)/C(C#N)=C\c2cc(C)n(-c3ccc4c(c3)OCO4)c2C)cc1 | 3.77
10 | CC[N+](CC)(CCO)CCCN1C(=O)C2CC=C(Cl)CC2C1=O.[Br-] (stereo not shown) | 7.9
11 | O=C(/C=C/c1ccco1)N(Cc1ccccc1)C1CCS(=O)(=O)C1 (stereo not shown) | -29.5
12 | CC1(C)CC(=O)c2c(noc2-c2ccccc2)C1 | 7.35
13 | Cc1cccc(C(=O)OCC(=O)NN2C(=O)NC3(CCC(C)CC3)C2=O)c1O (stereo not shown) | -2.36
14 | Cc1ccc(C(=O)N2c3ccccc3OCC2C)cc1 (stereo not shown) | 3.36
15 | COc1ccc(OC)c(S(=O)(=O)N2CCC(C(=O)Nc3ccc(C)c(C)c3)CC2)c1 | -9.98
16 | Cc1ccc(C2=[N+]([O-])C(C)(C)CC2)cc1 | 14.9
17 | CCC1CN(C)CCC1(OC(C)=O)c1ccccc1.Cl (stereo not shown) | 12.1
18 | O=C(COC(=O)c1ccc(S(=O)(=O)N2CCCC2)cc1)Nc1ccc(N2CCOCC2)cc1 | 22.2
19 | COC(=O)c1ccc(N)cc1O | 22
20 | CN1CCN(C(=O)c2ccccc2NC(=O)c2cccc(Cl)c2)CC1 | -10.5
21 | O=C1C(Cl)=C(NCCCN2CCOCC2)C(=O)N1CCc1ccccc1 | -32.6
22 | COc1cccc(OC)c1C(=O)NC(C)C12CC3CC(CC(C3)C1)C2 (stereo not shown) | 3.99
23 | Cc1cc(N2CCCC(C(=O)Nc3cccc(Cl)c3)C2)n2ncnc2n1 (stereo not shown) | -38

Row | Compound | hERG current change (%, negative = inhibition) at 10uM [%]
24 | CCc1ccc(OC)c(S(=O)(=O)NCc2cccs2)c1 | -2.86
25 | Cc1ccc(NC(=O)C2(c3ccccc3)CCOCC2)cc1 | 9.1
26 | Cc1nn(-c2cc(C)c3ccccc3n2)c2c1CCC2 | 2.72
27 | CCN(CC)c1ccc(NC(=O)COC(=O)CCC(=O)c2cccs2)cc1 | 5.04
28 | O=C(Nc1cc(Br)ccc1O)C1CC(c2c(F)cccc2Cl)=NO1 (stereo not shown) | 20.3
29 | COc1cc(Nc2ncnc(N)n2)cc(OC)c1 | 9.91
30 | COC(=O)c1ccc(N/C=C/C(=O)c2ccccc2)cc1 | 22.9
31 | CCOC(=O)c1c(NC(=O)C2c3ccccc3Oc3ccccc32)sc(C(=O)N(CC)CC)c1C | 9.09
32 | CC1C(=O)NN=C1C(=O)N/N=C/c1cccs1 (stereo not shown) | 17.3
33 | O=C(O)COc1ccc(/C=N/NC(=O)COc2nsnc2N2CCOCC2)cc1 | 12
34 | CCOc1cc2[nH]c(=S)n(CCCC(=O)NCc3ccco3)c(=O)c2cc1OCC | -7.08
35 | CSc1ccccc1OCc1cc(C(=O)N2CCC[C@H]2C(N)=O)no1 | 5.26
36 | FC(F)(F)c1cc(Oc2ccccc2)nc(-c2ccccn2)n1 | -11.6
37 | CCN(CC)CCNC(=O)c1cc2ccccc2nc1Cl | 43.4
38 | Cc1cc(C(=O)N/N=C/c2sc(N3CCOCC3)nc2-c2ccccc2)c(C)o1 | 8.26
39 | COc1ccc(C(=O)Nn2c(C3CCC3)nc3ccccc3c2=O)c(OC)c1 | -4.75
40 | COc1ccc(CCNC(=O)c2cc(Cl)nc3ccccc23)cc1 | 11.5
41 | COc1ccc(S(=O)(=O)N2CCCN(Cc3cccc(F)c3)CC2)cc1 | -44.6
42 | COc1ccc(C(=O)NC2CCCc3c2cnn3-c2ccccc2F)cc1OC (stereo not shown) | 2.09
43 | CC1(c2nnc(Cc3ccccc3)o2)CC(c2ccccc2[N+](=O)[O-])=NO1 (stereo not shown) | -27
44 | CC1CCC(NC(=O)CCS(=O)(=O)c2ccc3c(c2)CC(C)N3C(=O)C2CC2)CC1 (stereo not shown) | 7.85
45 | COc1ccc2oc(C)c(C(=O)Cn3ccnc3)c2c1 | -39.5
46 | COc1ccc(CCN(Cc2cccs2)S(=O)(=O)c2ccc(S(=O)(=O)N(C)C3CCCCC3)cc2)cc1OC | 2.56
